From PubChem BioAssay AID1508624 (National Center for Advancing Translational Sciences (NCATS), 2021) come the findings set out here.

About 120 (0.25%) of roughly 48,000 compounds were called active. Inconclusive results (about 4%) are left out. Calls follow the shape of the dose curve; as a rule, active = well fitted activation curve with a large enough effect; inconclusive = small, poorly fitted or top-dose-only effect, or another doubt; inactive = no such curve, though single readings can be large or run the other way. The list shows a part of the results.

A short description of the assay: Primary qHTS for Identification of Small Molecule Activators of Huntingtin-Antisense Promoter Activity. Also: nearly all actives have a fitted effect of over 55% in size. The note with it: HEK293 HTT-AS promoter firefly luciferase reporter (activity 0% = vehicle and -100% = no light), 24 h; series mostly up to 57.5 µM; activity change, positive = activation: at the top concentration. The method in brief:
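Quantitative HTS used concentration series of up to 57.5 uM final on HEK293 luciferase reporter cells, 24 h at 37 degrees C. Readout was Dual-Glo firefly luminescence.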
Background: Quantitative high-throughput screening tests each substance at several concentrations.
In the case of `Clc1ccc(CCNC(c2nnc(-c3ccccc3)o2)c2ccccc2Cl)cc1` (centres undefined), the “activity change, positive = activation” value was inactive: -25.6%.
In the case of `Cc1ccc(-c2noc(-c3ccc(N4CCCCC4)c([N+](=O)[O-])c3)n2)cc1` it was inactive: -36.4%.
In the case of `Cc1cc(C)cc(OCC2CNC(=O)O2)c1` (centres undefined) it was inactive: -6.87%; in that of `O=C(NCc1cccc(F)c1)C1CCN(C(=O)c2sccc2-n2cccc2)CC1`, inactive: -18.7%.
In the case of `CCOc1ccccc1CNC(=O)c1ccc2nc(Cc3ccc(OC)cc3)oc2c1` it was inactive: -24.6%.
For `O=C(Nc1cc(NC(=O)c2ccccc2Cl)ccc1Cl)c1ccccc1`, the “activity change, positive = activation” value is inactive: 20.2%.
In the case of `COc1ccc(CNC(=O)c2ccc(Cn3c(=O)c4cccn4c4cccnc43)cc2)cc1OC` it was inactive: -11%; in that of `COc1ccc(N2CCN(C(=O)CCNS(=O)(=O)c3ccc4c(c3)CCN4C(=O)C3CC3)CC2)cc1`, inactive: -36.3%.
In the case of `CCOCCCNC(=O)NC(CCC(C)C)c1c(-n2cccc2)sc2c1CCN(C)C2` (centres undefined) it was inactive: -21.4%; in that of `CCc1ccc(NC(=O)CSc2cn(CC(=O)N3CCCC3)c3ccccc23)cc1`, inactive: -21%.
In the case of `CN1CCN(CCCNC(=O)c2cnn(-c3ccccc3)c2-n2cccc2)CC1` it was inactive: -8.52%; in that of `Cc1ccc(OCC(=O)Nc2ccc(S(=O)(=O)Nc3ncccn3)cc2)c(C(C)(C)C)c1`, inactive: 11.5%.
With `O=c1c2sc3ccccc3c2n(Cc2cccc(C(F)(F)F)c2)c(=O)n1Cc1ccco1`, the “activity change, positive = activation” value is inactive: -20.1%.
In the case of `c1nc2nc(Nc3ccc(N4CCOCC4)cc3)nc(NC3CCCCC3)c2[nH]1` it was inactive: -26%.
The result for `CC(C(O)c1ccccc1)N(C)CCOC(c1ccccc1)c1ccccc1` (centres undefined) reads inactive: -25.6%; that for `Cc1ccc(C)c(-c2nc(Cn3c(=O)cc(-c4ccccc4)c4c(C)nn(C)c43)c(C)o2)c1`, inactive: -13.1%.
The result for `CC(C)(C)C(=O)CSc1nc2ccsc2c(=O)n1Cc1ccccc1F` reads inactive: -28.5%.
With `Cc1cc(=O)c2cc(C(=O)Nc3ccccc3)ccc2[nH]1`, the “activity change, positive = activation” value is inactive: 1.46%.
In the case of `Cc1ccc2cccc(NC(=O)c3ccc(-c4ccc(Br)cc4)o3)c2n1` it was inactive: 6.71%; in that of `CCc1ccc(-n2c(-c3ccccc3)c(C)n3c4c(=O)n(C)c(=O)n(C)c4nc23)cc1`, inactive: -11.3%.
Take `COc1cccc(N2C(=O)N(CC(=O)NCc3cccc(OC)c3OC)c3ccccc3S2(=O)=O)c1`: the “activity change, positive = activation” value is inactive: -20.2%.
The result for `NS(=O)(=O)c1ccc(CCNC(=O)c2nc(SCc3ccccc3F)ncc2Cl)cc1` reads inactive: -24.2%; that for `COc1cccc(C2C(C(=O)Nc3ccccc3OC)=C(C)Nc3nc4ccccc4n32)c1` (centres undefined), inactive: -34.5%.
In the case of `CCc1ccccc1Nc1ncnc2c1nc1n2CCCC1` it was inactive: 11.9%.
Consider `COc1ccccc1N1CCN(C(=O)CCS(=O)(=O)c2cc(Br)cc3c2N(C(=O)C2CC2)CC3)CC1`, for which the “activity change, positive = activation” value is inactive: -4.16%.
The result for `CCOC(=O)c1c(C)oc2nc(C)nc(N3CCN(c4ccccc4)CC3)c12` reads inactive: -42.7%; that for `CC(=O)O[C@H]1C[C@@H]2CC[C@@H]3[C@H](CC[C@@]4(C)[C@H]3C[C@H]([N+]3(C)CCCCC3)[C@@H]4OC(C)=O)[C@@]2(C)C[C@@H]1N1CCCCC1`, inactive: -5.96%.
In the case of `O=C(Nc1ccc(F)cc1)c1cccn1-c1nnc(N2CCCCC2)s1` it was inactive: 2.26%; in that of `COc1ccc2oc(=O)c(C(=O)NCCc3c(C)[nH]c4ccc(Br)cc34)cc2c1`, inactive: -50.4%.
The result for `O=C(CSc1nnc(CNC(=O)c2ccccc2)n1-c1cccc(Cl)c1)Nc1ccccc1F` reads inactive: -8.51%; that for `Cc1cn2c(=O)cc(COc3ccccc3NC(=O)c3ccccc3C)nc2s1`, inactive: 0.552%; that for `CCN(Cc1ccccc1)Cc1c(O)ccc2c(=O)c(-c3ccccc3OC)c(C(F)(F)F)oc12`, inactive: -19.3%.
Consider `Cc1cccc(OCCSc2nc3ccccc3n2CC(=O)N2CCCCC2)c1C`, for which the “activity change, positive = activation” value was inactive: -31.4%.
The result for `CC(=O)Nc1nonc1-c1nnc(SCC(=O)Nc2ccc(F)cc2F)n1-c1ccccc1` reads inactive: 6.04%; that for `Cc1c(C)n(Cc2ccccc2)c2ccc(C(=O)NC(C)c3ccccc3)cc12` (centres undefined), inactive: -2.17%.
The result for `Cc1ccc(Cn2c(CNS(=O)(=O)c3c(C)cc(C)cc3C)nc3cccnc32)cc1` reads inactive: -32.9%; that for `CCOC(=O)N1CCN(S(=O)(=O)N2CCCC(C(=O)NCc3cc(OC)ccc3OC)C2)CC1` (centres undefined), inactive: -22.8%; that for `CCc1ccc(-n2c(SC(CC)C(=O)N(CC)CC)nc3n[nH]c(C)c3c2=N)cc1` (centres undefined), inactive: -29.7%.
The result for `COc1ccc(N2CC(NC(=O)/C=C\c3ccc(OC)c(OC)c3)CC2=O)cc1` (centres undefined) reads inactive: -20.5%; that for `Cc1nc(CC(=O)Nc2ccc(C)c(C)c2)cs1`, inactive: 12%.
Take `CCOCCCNC(=O)C1CCCN(Cc2nc(-c3ccc(CC)cc3)oc2C)C1` (centres undefined): the “activity change, positive = activation” value was inactive: -25.7%.
The result for `CCn1ccc2cc(S(=O)(=O)N3CCCN(C(=O)Nc4ccccc4OC)CC3)ccc21` reads inactive: -21.5%; that for `CCc1ccc(OCC(=O)N(Cc2cccs2)c2ccc(Cl)cc2)cc1`, inactive: -29.9%; that for `Cc1cccc(NC(=O)C2CCCN(S(=O)(=O)c3cccc4nonc34)C2)c1C` (centres undefined), inactive: -16.2%.
Turning to `CCN1CCC(N(Cc2ccc3c(c2)OCO3)C(=O)Nc2cc(Cl)ccc2C(=O)OC)CC1`, the “activity change, positive = activation” value was inactive: -24.1%.
For `Cc1cccc(N2CCN(C(=O)c3cn(C4CCCCC4)c(=O)c4c3c3ccccc3n4C)CC2)c1C`, the “activity change, positive = activation” value was inactive: -13.7%.
`Cc1cc2oc(=O)c(CC(=O)NCCc3ccccc3)c(C)c2c2occ(C(C)(C)C)c12`: the “activity change, positive = activation” value is inactive: -13.3%.
The result for `CCCOC(=O)c1c(C)oc2c1cc(NS(=O)(=O)c1ccc(OCC)cc1)c1ccccc12` reads inactive: -45.7%; that for `COc1ccc(-c2cn3c(n2)sc2cc(C(=O)NC4CCCc5ccccc54)ccc23)cc1` (centres undefined), inactive: 27.5%.
For the molecule `Cc1cc(C(=O)O)c2c(=O)n(C)c(=O)n(C)c2n1`, the “activity change, positive = activation” value was inactive: -2.4%.
In the case of `CCN(C(=O)CCc1nc(-c2ccc(C)cc2)no1)c1cc(C)ccc1C` it was inactive: -32.1%; in that of `CCCCN(C)CCCNC(=O)c1ccc2nc(N3CCCCC3)sc2c1`, inactive: -28.6%.
The result for `Cc1ccc(NC(=O)c2oc3ccccc3c2NC(=O)Cc2cccs2)cc1` reads inactive: 22.5%; that for `CCOc1ccccc1NC(=O)Nc1nnc(N(C)Cc2ccccc2)s1`, inactive: 18%; that for `Cc1ccc(C(Nc2ccccn2)c2ccc3cccnc3c2O)cc1` (centres undefined), inactive: -48.4%.
The result for `COc1ccccc1NC(=O)CCS(=O)(=O)c1ccc2nc(C)sc2c1` reads inactive: -9.59%; that for `COc1cc(Cl)c(NS(=O)(=O)c2ccc3c(c2)CC(C)N3C(=O)C2CCC2)c(OC)c1` (centres undefined), inactive: -86.9%; that for `COc1cc(Cl)c(C)cc1NC(=O)CCc1c(C)nc2cc(-c3cccc(F)c3)nn2c1C`, inactive: -58.7%.
As to `CCc1c(C)sc2c1CCN(C(=O)Nc1ccccc1C(F)(F)F)C2c1ccccc1` (centres undefined), the “activity change, positive = activation” value was inactive: -48.7%.
The result for `Cc1ccccc1NC(=O)c1c(NC(=O)C(C)Oc2cccc(Cl)c2)sc2c1CCCC2` (centres undefined) reads inactive: -19.6%; that for `O=C(CCn1cnc2onc(-c3ccc(F)cc3)c2c1=O)N1CCN(c2ccc(F)cc2)CC1`, inactive: -26.1%.
In the case of `CCn1c(C(=O)N2CCCC(C(=O)NCCCOC)C2)cc2sccc21` (centres undefined) it was inactive: -21.2%.
The result for `COc1ccc(N2CCN(C(CNC(=O)CC(C)C)c3ccc4c(c3)OCO4)CC2)cc1` (centres undefined) reads inactive: -11.3%; that for `CCc1cccc(CC)c1NC(=O)Cn1nnc2sc(-c3ccccc3)cc2c1=O`, inactive: -10.9%; that for `Cc1ccc(-c2nc3ccc(Cl)cn3c2Nc2ccc3c(c2)OCCO3)o1`, inactive: 17.1%.
`COc1ccc(-c2nc(CS(=O)CC(=O)NCc3ccc(F)cc3)c(C)o2)cc1OC` (centres undefined): the “activity change, positive = activation” value was inactive: -19.4%.
In the case of `CCCCOc1ccc(C2=NC(c3ccncc3)=Nc3ccc(Br)cc3N2)cc1`, the “activity change, positive = activation” value was inactive: -6.42%.
Regarding `CCCCCC(=O)O[C@]1(C(C)=O)CC[C@H]2[C@@H]3CCC4=CC(=O)CC[C@]4(C)[C@H]3CC[C@@]21C`, the “activity change, positive = activation” value was inactive: -20%.
In the case of `CCOc1ccccc1N(CC)C(=O)Nc1cn(C)c(=O)c2ccccc12`, the “activity change, positive = activation” value was inactive: -15.2%.
As to `COc1ccc(OCC(=O)Nc2ccc(C(=O)OCc3cc(=O)n4nc(C)sc4n3)cc2)cc1`, the “activity change, positive = activation” value is inactive: -10.4%.
In the case of `Cc1c(Cl)cccc1-n1ncc(C(=O)N2CCc3ccccc3C2)c1C1CCN(C(=O)OC(C)(C)C)CC1` it was inactive: 3.38%; in that of `Cc1ccc(/C=C/c2onc(C)c2S(=O)(=O)N2CCC(C(=O)N3CC(C)Oc4ccccc43)CC2)cc1` (centres undefined), inactive: -14.9%; in that of `CCCCCn1c(=O)[nH]c2cc(C(=O)N3CCN(c4ccccc4)CC3)ccc2c1=O`, inactive: -7.05%.
The result for `O=C(CSc1nc(-c2ccc(F)cc2)cc(C(F)(F)F)n1)NCc1ccccc1` reads inactive: -18.7%; that for `COc1ccc(OCC(=O)NCC2(N3CCN(C)CC3)CCCCC2)cc1`, inactive: -19.1%; that for `CCCCNC(=O)CCC(=O)NNc1nc2ccccc2c2nc(-c3ccccc3)nn12`, inactive: -3.96%.
The result for `Cc1cccc(C(=O)Nc2c3c(nn2-c2ccc(Cl)cc2)CS(=O)(=O)C3)c1` reads inactive: -24.5%.
Consider `CCOC(=O)c1ccc2c(c1)N(Cc1cccc(OC)c1)C(=O)c1ccccc1S2(=O)=O`, for which the “activity change, positive = activation” value was inactive: -25.1%.
The result for `CCOC(=O)c1c(-c2ccccc2)oc2ccc(NS(=O)(=O)c3ccc(OC)cc3)cc12` reads inactive: -31%.
The result for `CC(C)(C)OC(=O)N1CCC(c2c(C(=O)NC3CCN(Cc4ccccc4)CC3)cnn2-c2cccc(F)c2)CC1` reads inactive: -10.2%; that for `COc1ccccc1CNC(=O)CC1N=C2c3ccccc3N=C(SCC(=O)Nc3ccc(F)cc3)N2C1=O` (centres undefined), inactive: -10.1%; that for `Cc1oc2c(c1C(=O)Nc1cccc(Br)c1)C1=NCCN1C=N2`, inactive: -16.8%.
In the case of `COc1cc(NC(=O)c2c(-c3ccc(C)cc3)nnc3ccccc23)cc(OC)c1OC`, the “activity change, positive = activation” value is inactive: 15.3%.
The result for `O=C(Cn1nc(-c2ccccc2)ccc1=O)NCc1ccc(F)cc1Cl` reads inactive: -4.07%; that for `COc1ccccc1Nc1nn2c(=O)c3ccc(C(=O)N4CCC(C)CC4)cc3nc2s1`, inactive: -44.6%; that for `O=C(c1nc(-c2ccc(Cl)cc2)n2c1CCCCC2)N1CCN(c2ccccc2F)CC1`, inactive: -20.7%.
In the case of `CC(=O)c1ccc(N2C(=O)N(Cc3cccc(C(F)(F)F)c3)c3ccccc3S2(=O)=O)cc1` it was inactive: -40.4%.
For `Cc1ccc(CS(=O)(=O)c2cn(CC(=O)N(C)c3ccccc3)c3ccccc23)cc1`, the “activity change, positive = activation” value was inactive: -39.6%.
In the case of `CC1=C(C(=O)OC2CCCC2)C(c2ccc(F)cc2F)CC(=O)N1` (centres undefined) it was inactive: -20.7%.
The result for `CCOc1cc(C(=O)Nc2ccc3oc(-c4ccc(F)cc4Cl)nc3c2)cc(OCC)c1OCC` reads inactive: 1.07%; that for `COc1ccc(N(Cc2cccs2)C(=O)c2ccccc2C)cc1`, inactive: -41.7%.
In the case of `Cc1ccc(NC(=O)c2cc(C)nn2-c2ccccc2)cc1` it was inactive: -2.29%; in that of `COc1ccc(C)cc1NCc1nnc2n1CCCCC2`, inactive: -13.7%.
Regarding `O=C(CCCCn1c(=O)c2ccccc2n(Cc2ccc(Cl)cc2)c1=O)NCc1ccccc1Cl`, the “activity change, positive = activation” value is inactive: -54.4%.
